Data published in PubChem BioAssay AID504832 (National Center for Advancing Translational Sciences (NCATS), 2011).
The campaign covered roughly 310,000 compounds. About 18,000 (5.8%) were called active. The inconclusive results got no clear call from the source; some entries with a clear call stand among them for comparison. The call rests on the fitted dose curve; in most records, active means well fitted inhibition curve with a large enough effect; inconclusive means small, poorly fitted or top-dose-only effect, or another doubt; inactive means no such curve, though single readings can be large or run the other way. No potency is given beside an inconclusive call; the fits are too rough.

Test: Primary qHTS for delayed death inhibitors of the malarial parasite plastid, 48 hour incubation
Settings: P. falciparum luciferase growth in erythrocytes; series mostly up to 28.7 µM; activity change, negative = inhibition: at the top concentration
Procedure, shortened: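 A one-generation exposure of luciferase-tagged malaria parasites in RPMI 1640/Albumax erythrocyte culture, 37 C and 5% CO2. Inhibition is inferred from decreased luminescence after adding detection reagent.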
On the % scale 0 is the no-effect control and ±100 the full control effect; potency means the concentration at half of the fitted maximal effect; tags describe the fitted curve by direction and shape.

Q: With `COc1ccc(N(CCOc2ccccc2)S(=O)(=O)c2ccccc2)cc1` as the compound, how does the Potency read?
A: inconclusive [inhibitor, single point]

Q: With `Cc1ccccc1-n1nnnc1SC(C)C(=O)Nc1ccc(N2CCN(C)CC2)cc1` (stereo not drawn) as the compound, how does the Potency read?
A: inconclusive [inhibitor, single point]

Q: With `Cc1ccc(-c2nc(C(=O)NCCCN3CCOCC3)cc3c2[nH]c2ccccc23)cc1` as the compound, how does the Potency read?
A: active: 5.86 µM

Q: For `CCc1nnc(NC(=O)c2cccc(S(=O)(=O)N3CCN(C(C)=O)CC3)c2)s1`, which Potency is on record?
A: inconclusive [inhibitor, single point]

Q: Which Potency does the source give for `Cc1ccc(NC(=O)C2CC(=O)N(Cc3ccccc3)C2)nc1` (stereo not drawn) here?
A: inconclusive [inhibitor, single point]

Q: Which Potency does the source give for `N#Cc1ccc(-c2ccc(OCC(O)CN3CCCCC3)cc2)cc1` (stereo not drawn) here?
A: inconclusive [inhibitor, single point]

Q: With `COc1ccc(N2CCN(C(CNC(=O)C3CCCCC3)c3cccnc3)CC2)cc1` (stereo not drawn) as the compound, how does the Potency read?
A: inconclusive [inhibitor, full curve]

Q: Which Potency does the source give for `CCCCC(CC)C(=O)Nc1cc(C(=O)NCCC)ccc1N1CCC2(CC1)CC(c1cccc(Br)c1)=NO2` (stereo not drawn) here?
A: active: 3.7 µM

Q: Which Potency does the source give for `CCO[C@@H]1OC(C(=O)N2CCN(Cc3ccccc3)CC2)=C[C@H](c2cn(C(C)=O)c3ccccc23)[C@H]1CCCO` here?
A: active: 8.28 µM

Q: Which Potency does the source give for `COCCn1ccc2c(OCC(=O)NCCc3ccc(OC)c(OC)c3)cccc2c1=O` here?
A: inconclusive [inhibitor, single point]

Q: With `CC(C)NS(=O)(=O)c1ccc(Br)c(C(=O)OC(C)C(=O)NC2CCCCC2C)c1` (stereo not drawn) as the compound, how does the Potency read?
A: inconclusive [inhibitor, single point]

Q: For `CCOC(=O)C1CCN(S(=O)(=O)c2c(C)[nH]c(C)c2C(=O)N2CCCCC2)CC1`, which “activity change, negative = inhibition” value is on record?
A: inactive: -22.9%

Q: With `COC(=O)C1=C(CSCc2ccccc2)NC(=O)NC1c1cc(C)ccc1C` (stereo not drawn) as the compound, how does the Potency read?
A: inconclusive [inhibitor, partial curve, poor fit]

Q: With `Cc1cccc(N2CCN(S(=O)(=O)c3ccc(-c4cc(C)no4)s3)CC2C)c1` (stereo not drawn) as the compound, how does the Potency read?
A: inconclusive [inhibitor, partial curve, poor fit]

Q: With `CCOc1ccc(S(=O)(=O)N2CCC(C(=O)N3CCc4ccccc4C3)CC2)cc1` as the compound, how does the Potency read?
A: inconclusive [inhibitor, partial curve]

Q: Which Potency does the source give for `Cc1c(C(=O)/C=C/N(C)C)nnn1-c1ccc(Cl)c(Cl)c1` here?
A: inconclusive [inhibitor, single point]

Q: With `Cc1cc(C)n2nc(SCC(=O)c3c(N)n(CC(C)C)c(=O)n(C)c3=O)nc2n1` as the compound, how does the Potency read?
A: active: 4.65 µM

Q: With `CCN1c2ccccc2-c2nc3ccccc3n2C1c1cccnc1` (stereo not drawn) as the compound, how does the Potency read?
A: active: 9.28 µM

Q: With `CCOc1ccccc1NC(=O)NNS(=O)(=O)c1ccc([N+](=O)[O-])cc1` as the compound, how does the “activity change, negative = inhibition” value read?
A: inactive: -6.13%

Q: Which Potency does the source give for `CC(=O)N1N=C(c2c(-c3ccccc3)c3cc(Br)ccc3[nH]c2=O)CC1c1ccco1` (stereo not drawn) here?
A: inconclusive [inhibitor, partial curve, poor fit]

Q: Which Potency does the source give for `CC(C)c1ccc2c(c1)C1Cc3ccccc3C1N2` (stereo not drawn) here?
A: inconclusive [inhibitor, single point]

Q: With `Cc1[nH][nH]c(=O)c1C(c1ccc(-c2ccc(F)cc2)o1)c1c(C)[nH][nH]c1=O` as the compound, how does the Potency read?
A: inconclusive [inhibitor, single point]

Q: With `COc1ccc(CCC(=O)NC2CCCN(Cc3ccc(Cl)cc3)C2)cc1OC` (stereo not drawn) as the compound, how does the Potency read?
A: inconclusive [inhibitor, partial curve, poor fit]

Q: For `CCN(c1ccc(NC(=O)CSCc2c(C)noc2C)cc1)C(C)C`, which Potency is on record?
A: inconclusive [inhibitor, partial curve]

Q: Which Potency does the source give for `CCOc1ccc(NC(=O)N(CCN2CCOCC2)Cc2ccc3c(c2)CCCN3CC)cc1` here?
A: inconclusive [inhibitor, full curve, poor fit]

Q: For `CNS(=O)(=O)c1cccc(C(=O)OCC(=O)N(CCC#N)c2ccccc2)c1`, which “activity change, negative = inhibition” value is on record?
A: inactive: -13.9%

Q: Which “activity change, negative = inhibition” value does the source give for `CC(C)=N/N=C1/NC(=O)C(Cc2ccccc2)S1` (stereo not drawn) here?
A: inactive: -27.8%

Q: For `COc1cccc(CN(C)S(=O)(=O)c2cccs2)c1`, which “activity change, negative = inhibition” value is on record?
A: inactive: 37.4%

Q: Which Potency does the source give for `CCN(CC)S(=O)(=O)c1ccc(NC(=O)c2ccc(CN3CCOCC3)cc2)cc1` here?
A: active: 6.57 µM

Q: With `O=C(CS(=O)(=O)Cc1ccccc1)Nc1ccc(S(=O)(=O)N2CCCCCC2)cc1` as the compound, how does the Potency read?
A: inconclusive [inhibitor, single point]

Q: With `NC(N)=N/N=C/c1cccc(Cl)c1Cl` as the compound, how does the Potency read?
A: active: 1.65 µM

Q: With `Cc1ccc2c(CN3CCCCC3C)cc(=O)oc2c1` (stereo not drawn) as the compound, how does the “activity change, negative = inhibition” value read?
A: inactive: 12.3%

Q: For `Cn1c(=O)c2c(SCc3ccccn3)nc(CC(C)(C)C)nc2n(C)c1=O`, which Potency is on record?
A: active: 11.7 µM

Q: For `COc1ccc(C(=O)Nc2cccc3c2C(=O)NC3=O)cc1S(=O)(=O)N1CCOCC1`, which Potency is on record?
A: inconclusive [inhibitor, single point]

Q: With `CC1(C)Nc2ccc(O)cc2-c2c1ssc2=S` as the compound, how does the Potency read?
A: inconclusive [inhibitor, partial curve, poor fit]

Q: Which Potency does the source give for `O=C1CC[C@H](O)CCN1[C@H](CSc1ccccc1)Cc1ccccc1` here?
A: inconclusive [inhibitor, single point]

Q: With `Cc1cccc(N(C(=O)CCC(=O)Nc2cc(C)on2)C(C(=O)NC2CCCC2)c2ccccc2)c1` (stereo not drawn) as the compound, how does the Potency read?
A: inconclusive [inhibitor, partial curve, poor fit]

Q: Which Potency does the source give for `CCCC(=O)NC(c1ccccc1)c1ccc2cccnc2c1O` (stereo not drawn) here?
A: active: 2.33 µM

Q: With `c1ccc(Sc2ncnc3ccccc23)cc1` as the compound, how does the Potency read?
A: inconclusive [inhibitor, single point]

Q: For `CC(C)C[C@H](NC(=O)OC(C)(C)C)C(=O)N1CCC(C(=O)N[C@@H](Cc2ccccc2)C(=O)O)CC1`, which “activity change, negative = inhibition” value is on record?
A: inactive: -19.2%

Q: Which Potency does the source give for `O=C(/C(=C/c1ccncc1)n1ccnc1)c1ccc(Cl)cc1Cl` here?
A: inconclusive [inhibitor, full curve]

Q: With `COc1cccc(CN(C(=O)c2ccccc2Cl)C2CCS(=O)(=O)C2)c1` (stereo not drawn) as the compound, how does the “activity change, negative = inhibition” value read?
A: inactive: -4.49%

Q: Which Potency does the source give for `COc1ccc(Cl)cc1NC(=O)COC(=O)c1c(-c2ccccc2)noc1C` here?
A: inconclusive [inhibitor, single point]
